From article PMC12820563, “FoxP3 forms a head-to-head dimer in vivo and stabilizes its multimerization on adjacent microsatellites”
The list shows a part of the results.

Target: T1, MBP-FoxP1dN (Mus musculus, UniProt P58462 326-579)
T1 sequence: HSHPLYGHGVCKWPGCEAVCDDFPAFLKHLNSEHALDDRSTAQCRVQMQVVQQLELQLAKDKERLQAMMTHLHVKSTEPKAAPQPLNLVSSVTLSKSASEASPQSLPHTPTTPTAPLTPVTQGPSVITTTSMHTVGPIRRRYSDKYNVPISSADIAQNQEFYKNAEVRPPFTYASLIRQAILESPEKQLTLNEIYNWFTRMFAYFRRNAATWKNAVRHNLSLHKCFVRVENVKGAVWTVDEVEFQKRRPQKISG
Assay: PD-seq (MBP pull-down with sequencing); 20 mM Tris-HCl pH 7.5, 100 mM NaCl, 1.5 mM MgCl2, 0.4 uM protein, 0.1 uM dsDNA library, 30 min, room temperature, amylose pull-down; high values mean tight binding
Settings: protein: recombinant; tags: His6-MBP; chain copies: 2; dsDNA, one strand shown
How it was run: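 The N-terminus-lacking fragment of mouse FoxP3 or FoxP1 carried a His6-MBP tag and was expressed in E. coli. At 0.4 µM it was incubated with 0.1 µM Klenow-filled degenerate double-stranded DNA library for 30 min at room temperature in Tris pH 7.5 buffer with NaCl and MgCl2, and complexes were caught on amylose resin, washed three times, released with proteinase K, PCR-barcoded and Illumina-sequenced. Binding is reads-per-million enrichment of pull-down over input with replicates pooled.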

| Sequence | binding signal |
| --- | --- |
| GATGATTGTTCTCCCAGCTGATGAATTCAAAACGTCGAGTAAACAAATTTTCCTAATCTTTCTGTTCAAGCGCCATCTAC | 1.01 RPM ratio (pull-down/input) |
| GATGATTGTTCTCCCAGCTGATGAATTTCTGTTGTCGAGTAAACAAATTTTCCTAATCTTTCTGTTCAAGCGCCATCTAC | 2.16 RPM ratio (pull-down/input) |
| GATGATTGTTCTCCCAGCTGATGAATTTAGGTGGTCGAGTAAACAAATTTTCCTAATCTTTCTGTTCAAGCGCCATCTAC | 0.899 RPM ratio (pull-down/input) |
| GATGATTGTTCTCCCAGCTGATGAATTAGCAGATTCGAGTAAACAAATTTTCCTAATCTTTCTGTTCAAGCGCCATCTAC | 0.903 RPM ratio (pull-down/input) |
| GATGATTGTTCTCCCAGCTGATGAATTCAGTTACTCGAGTAAACAAATTTTCCTAATCTTTCTGTTCAAGCGCCATCTAC | 0.896 RPM ratio (pull-down/input) |
| GATGATTGTTCTCCCAGCTGATGAATTCTGATTATCGAGTAAACAAATTTTCCTAATCTTTCTGTTCAAGCGCCATCTAC | 1.37 RPM ratio (pull-down/input) |
| GATGATTGTTCTCCCAGCTGATGAATTAAGATGTTCGAGTAAACAAATTTTCCTAATCTTTCTGTTCAAGCGCCATCTAC | 0.935 RPM ratio (pull-down/input) |
| GATGATTGTTCTCCCAGCTGATGAATTTCCCAGCTCGAGTAAACAAATTTTCCTAATCTTTCTGTTCAAGCGCCATCTAC | 0.875 RPM ratio (pull-down/input) |
| GATGATTGTTCTCCCAGCTGATGAATTGAGGCTCTCGAGTAAACAAATTTTCCTAATCTTTCTGTTCAAGCGCCATCTAC | 0.818 RPM ratio (pull-down/input) |
| GATGATTGTTCTCCCAGCTGATGAATTAAAGGGGTCGAGTAAACAAATTTTCCTAATCTTTCTGTTCAAGCGCCATCTAC | 0.816 RPM ratio (pull-down/input) |
| GATGATTGTTCTCCCAGCTGATGAATTTGCCACTTCGAGTAAACAAATTTTCCTAATCTTTCTGTTCAAGCGCCATCTAC | 1.11 RPM ratio (pull-down/input) |
| GATGATTGTTCTCCCAGCTGATGAATTTTATGATTCGAGTAAACAAATTTTCCTAATCTTTCTGTTCAAGCGCCATCTAC | 1.15 RPM ratio (pull-down/input) |
| GATGATTGTTCTCCCAGCTGATGAATTGTCGTAGTCGAGTAAACAAATTTTCCTAATCTTTCTGTTCAAGCGCCATCTAC | 1.02 RPM ratio (pull-down/input) |
| GATGATTGTTCTCCCAGCTGATGAATTCTGGACGTCGAGTAAACAAATTTTCCTAATCTTTCTGTTCAAGCGCCATCTAC | 0.779 RPM ratio (pull-down/input) |
| GATGATTGTTCTCCCAGCTGATGAATTATGGGATTCGAGTAAACAAATTTTCCTAATCTTTCTGTTCAAGCGCCATCTAC | 0.923 RPM ratio (pull-down/input) |
| GATGATTGTTCTCCCAGCTGATGAATTACGGGCGTCGAGTAAACAAATTTTCCTAATCTTTCTGTTCAAGCGCCATCTAC | 0.931 RPM ratio (pull-down/input) |
| GATGATTGTTCTCCCAGCTGATGAATTTCCAGTCTCGAGTAAACAAATTTTCCTAATCTTTCTGTTCAAGCGCCATCTAC | 0.762 RPM ratio (pull-down/input) |
| GATGATTGTTCTCCCAGCTGATGAATTCGTTGTTTCGAGTAAACAAATTTTCCTAATCTTTCTGTTCAAGCGCCATCTAC | 1.22 RPM ratio (pull-down/input) |
| GATGATTGTTCTCCCAGCTGATGAATTCTCTCTATCGAGTAAACAAATTTTCCTAATCTTTCTGTTCAAGCGCCATCTAC | 0.939 RPM ratio (pull-down/input) |
| GATGATTGTTCTCCCAGCTGATGAATTATACCGTTCGAGTAAACAAATTTTCCTAATCTTTCTGTTCAAGCGCCATCTAC | 1.08 RPM ratio (pull-down/input) |
| GATGATTGTTCTCCCAGCTGATGAATTTAATCGATCGAGTAAACAAATTTTCCTAATCTTTCTGTTCAAGCGCCATCTAC | 0.923 RPM ratio (pull-down/input) |

| Sequence | binding signal |
| --- | --- |
| GATGATTGTTCTCCCAGCTGATGAATTCTGGTGTTCGAGTAAACAAATTTTCCTAATCTTTCTGTTCAAGCGCCATCTAC | 1.05 RPM ratio (pull-down/input) |
| GATGATTGTTCTCCCAGCTGATGAATTATAGCATTCGAGTAAACAAATTTTCCTAATCTTTCTGTTCAAGCGCCATCTAC | 1.32 RPM ratio (pull-down/input) |
| GATGATTGTTCTCCCAGCTGATGAATTTTGACCATCGAGTAAACAAATTTTCCTAATCTTTCTGTTCAAGCGCCATCTAC | 0.935 RPM ratio (pull-down/input) |
| GATGATTGTTCTCCCAGCTGATGAATTACCCCTCTCGAGTAAACAAATTTTCCTAATCTTTCTGTTCAAGCGCCATCTAC | 0.961 RPM ratio (pull-down/input) |
| GATGATTGTTCTCCCAGCTGATGAATTGCATTCCTCGAGTAAACAAATTTTCCTAATCTTTCTGTTCAAGCGCCATCTAC | 1.33 RPM ratio (pull-down/input) |
| GATGATTGTTCTCCCAGCTGATGAATTTACACGATCGAGTAAACAAATTTTCCTAATCTTTCTGTTCAAGCGCCATCTAC | 1.22 RPM ratio (pull-down/input) |
| GATGATTGTTCTCCCAGCTGATGAATTCCTACAGTCGAGTAAACAAATTTTCCTAATCTTTCTGTTCAAGCGCCATCTAC | 0.795 RPM ratio (pull-down/input) |
| GATGATTGTTCTCCCAGCTGATGAATTTAGGATTTCGAGTAAACAAATTTTCCTAATCTTTCTGTTCAAGCGCCATCTAC | 0.978 RPM ratio (pull-down/input) |
| GATGATTGTTCTCCCAGCTGATGAATTGCCACCTTCGAGTAAACAAATTTTCCTAATCTTTCTGTTCAAGCGCCATCTAC | 0.995 RPM ratio (pull-down/input) |
| GATGATTGTTCTCCCAGCTGATGAATTATCGTGCTCGAGTAAACAAATTTTCCTAATCTTTCTGTTCAAGCGCCATCTAC | 1.01 RPM ratio (pull-down/input) |
| GATGATTGTTCTCCCAGCTGATGAATTCCTAGTTTCGAGTAAACAAATTTTCCTAATCTTTCTGTTCAAGCGCCATCTAC | 0.893 RPM ratio (pull-down/input) |
| GATGATTGTTCTCCCAGCTGATGAATTTCACAAATCGAGTAAACAAATTTTCCTAATCTTTCTGTTCAAGCGCCATCTAC | 1.23 RPM ratio (pull-down/input) |
| GATGATTGTTCTCCCAGCTGATGAATTCTCTGCCTCGAGTAAACAAATTTTCCTAATCTTTCTGTTCAAGCGCCATCTAC | 0.82 RPM ratio (pull-down/input) |
| GATGATTGTTCTCCCAGCTGATGAATTGACGATCTCGAGTAAACAAATTTTCCTAATCTTTCTGTTCAAGCGCCATCTAC | 1.04 RPM ratio (pull-down/input) |
| GATGATTGTTCTCCCAGCTGATGAATTGAAACGCTCGAGTAAACAAATTTTCCTAATCTTTCTGTTCAAGCGCCATCTAC | 0.86 RPM ratio (pull-down/input) |
| GATGATTGTTCTCCCAGCTGATGAATTATAACATTCGAGTAAACAAATTTTCCTAATCTTTCTGTTCAAGCGCCATCTAC | 1.27 RPM ratio (pull-down/input) |
| GATGATTGTTCTCCCAGCTGATGAATTTTAACGTTCGAGTAAACAAATTTTCCTAATCTTTCTGTTCAAGCGCCATCTAC | 0.849 RPM ratio (pull-down/input) |
| GATGATTGTTCTCCCAGCTGATGAATTTAGCTAATCGAGTAAACAAATTTTCCTAATCTTTCTGTTCAAGCGCCATCTAC | 1.09 RPM ratio (pull-down/input) |
| GATGATTGTTCTCCCAGCTGATGAATTGGTGGTGTCGAGTAAACAAATTTTCCTAATCTTTCTGTTCAAGCGCCATCTAC | 0.948 RPM ratio (pull-down/input) |
| GATGATTGTTCTCCCAGCTGATGAATTTGTCCGTTCGAGTAAACAAATTTTCCTAATCTTTCTGTTCAAGCGCCATCTAC | 1.03 RPM ratio (pull-down/input) |
| GATGATTGTTCTCCCAGCTGATGAATTGAAATCATCGAGTAAACAAATTTTCCTAATCTTTCTGTTCAAGCGCCATCTAC | 0.994 RPM ratio (pull-down/input) |

| Sequence | binding signal |
| --- | --- |
| GATGATTGTTCTCCCAGCTGATGAATTAGTGGACTCGAGTAAACAAATTTTCCTAATCTTTCTGTTCAAGCGCCATCTAC | 0.903 RPM ratio (pull-down/input) |
| GATGATTGTTCTCCCAGCTGATGAATTCACGAACTCGAGTAAACAAATTTTCCTAATCTTTCTGTTCAAGCGCCATCTAC | 0.818 RPM ratio (pull-down/input) |
| GATGATTGTTCTCCCAGCTGATGAATTGTCAAGATCGAGTAAACAAATTTTCCTAATCTTTCTGTTCAAGCGCCATCTAC | 1.03 RPM ratio (pull-down/input) |
| GATGATTGTTCTCCCAGCTGATGAATTCCCCTCATCGAGTAAACAAATTTTCCTAATCTTTCTGTTCAAGCGCCATCTAC | 0.862 RPM ratio (pull-down/input) |
| GATGATTGTTCTCCCAGCTGATGAATTGCCACGCTCGAGTAAACAAATTTTCCTAATCTTTCTGTTCAAGCGCCATCTAC | 0.965 RPM ratio (pull-down/input) |
| GATGATTGTTCTCCCAGCTGATGAATTTAGTTCTTCGAGTAAACAAATTTTCCTAATCTTTCTGTTCAAGCGCCATCTAC | 0.97 RPM ratio (pull-down/input) |
| GATGATTGTTCTCCCAGCTGATGAATTGGTAAGGTCGAGTAAACAAATTTTCCTAATCTTTCTGTTCAAGCGCCATCTAC | 0.881 RPM ratio (pull-down/input) |
| GATGATTGTTCTCCCAGCTGATGAATTTAACCGCTCGAGTAAACAAATTTTCCTAATCTTTCTGTTCAAGCGCCATCTAC | 0.857 RPM ratio (pull-down/input) |
| GATGATTGTTCTCCCAGCTGATGAATTGTCCCACTCGAGTAAACAAATTTTCCTAATCTTTCTGTTCAAGCGCCATCTAC | 0.967 RPM ratio (pull-down/input) |
| GATGATTGTTCTCCCAGCTGATGAATTCCTTATCTCGAGTAAACAAATTTTCCTAATCTTTCTGTTCAAGCGCCATCTAC | 0.825 RPM ratio (pull-down/input) |
| GATGATTGTTCTCCCAGCTGATGAATTCAAGCCCTCGAGTAAACAAATTTTCCTAATCTTTCTGTTCAAGCGCCATCTAC | 0.749 RPM ratio (pull-down/input) |
| GATGATTGTTCTCCCAGCTGATGAATTTGGGATGTCGAGTAAACAAATTTTCCTAATCTTTCTGTTCAAGCGCCATCTAC | 0.922 RPM ratio (pull-down/input) |
| GATGATTGTTCTCCCAGCTGATGAATTACTGCCCTCGAGTAAACAAATTTTCCTAATCTTTCTGTTCAAGCGCCATCTAC | 0.944 RPM ratio (pull-down/input) |
| GATGATTGTTCTCCCAGCTGATGAATTAAAGAGTTCGAGTAAACAAATTTTCCTAATCTTTCTGTTCAAGCGCCATCTAC | 0.941 RPM ratio (pull-down/input) |
| GATGATTGTTCTCCCAGCTGATGAATTGTAGATATCGAGTAAACAAATTTTCCTAATCTTTCTGTTCAAGCGCCATCTAC | 1.09 RPM ratio (pull-down/input) |
| GATGATTGTTCTCCCAGCTGATGAATTTTACAGGTCGAGTAAACAAATTTTCCTAATCTTTCTGTTCAAGCGCCATCTAC | 0.759 RPM ratio (pull-down/input) |
| GATGATTGTTCTCCCAGCTGATGAATTCCAGGGGTCGAGTAAACAAATTTTCCTAATCTTTCTGTTCAAGCGCCATCTAC | 0.771 RPM ratio (pull-down/input) |
| GATGATTGTTCTCCCAGCTGATGAATTAGAGTGGTCGAGTAAACAAATTTTCCTAATCTTTCTGTTCAAGCGCCATCTAC | 0.915 RPM ratio (pull-down/input) |
| GATGATTGTTCTCCCAGCTGATGAATTCCCGCAATCGAGTAAACAAATTTTCCTAATCTTTCTGTTCAAGCGCCATCTAC | 1.08 RPM ratio (pull-down/input) |
| GATGATTGTTCTCCCAGCTGATGAATTCAGGTAGTCGAGTAAACAAATTTTCCTAATCTTTCTGTTCAAGCGCCATCTAC | 0.956 RPM ratio (pull-down/input) |
| GATGATTGTTCTCCCAGCTGATGAATTGGTCACCTCGAGTAAACAAATTTTCCTAATCTTTCTGTTCAAGCGCCATCTAC | 0.86 RPM ratio (pull-down/input) |
